B1: OR4K15 (parent)
chain: GUUAACGGUCAUAGGCCAUGGAAACUAGGAGCACCAUUUCGCUGCCAGUGAAGAAAUGAACAAAGAAAAUCUGGGCCAGGCAGGCAUCAAAAGAAAUAGUCUUGCGCUCAACCAGAAAGUCUGUAAUCAUUUUAAGGGUA

Read counts are not given, so values of variants with three or more changes are uncertain.

In the data set the parent is B1. As to the kind of experiment: self-cleavage, relative activity (ratio to wild type); higher = more cleavage; in vitro, sequencing; the parent is a self-cleaving ribozyme.
As to GUUAACGGUCAUAGGCCAUGGAAACUAGGAGCACCAUUUCGCUGCCAGUGAAGAAAUGAACAAAGUAACCCUGGGCCGGGCAGGCAUCAAAAGAAAUAGUCUUGCGCUCAACCAGAAGGUCUGUAAUCAUUUUAAGGGUA [A66U A69C U70C A78G A118G], the self-cleavage came out at 0.13.
The result for GUUAACGGUCAUAGGCCAUGGAAACUAGGAGCACCAUUUCGCUGCCAGUGAAGAAAUGAACAAAGUAAAUCUGGGCCAAGCAGGCAUCAAAAGAAAUAGUCUUGCGCCCAACCAGAAAGGCUGUAAUCUUUUUAAGGGUA [A66U G79A U108C U120G A129U] reads 0.01; that for GUUAACGGUCAUAGGCCAUGGAAACUAGGAGCACCAUUUCGCUGCCAGUGAAGAAAUGAACAAAGUAAACCUGGGCCAGGCAGGCAUCAAAAGAAAUAGUCCUGCGCUCAACCAGAAAGUCUGUAAUCAUUUUAAGGGUA [A66U U70C U102C], 0.84.
GUUAACGGUCAUAGGCCAUGGAAACUAGGAGCACCAUUUCGCUGCCAGUGAAGAAAUGAACAAAGGAAAUCUGGGCCAGGCAGGCAUCAAAAGAAAUAGUCUUGCGCUCAACAGGAAAGUCUGUAAUCAUUCUAAGGGUA [A66G C113A A114G U132C]: the self-cleavage amounted to 0.
Take GUUAACGGUCAUAGGCCAUGGAAACUAGGAGCACCAUUUCGCUGCCAGUGAAGAAAUGAACAAAGAGAAUCUGGGCCAGGCGUGCAUCAAAAGAAAUAGUCUUGCGCACAACCAGAAAGUCUGUAGUCAUUUUAAGGGUA [A67G A82G G83U U108A A126G]: the self-cleavage turned out to be 0.02.
The result for GUUAACGGUCAUAGGCCAUGGAAACUAGGAGCACCAUUUCGCUGCCAGUGAAGAAAUGAACAAAGGAAAUCAGGGCCAGGCAGGCAUCAAAAGAAAUAGUCUUGCGCUCAACCAGAGAGUCUGUAAUCAUUUUAAGGGUA [A66G U72A A117G] reads 0.14.
For GUUAACGGUCAUAGGCCAUGGAAACUAGGAGCACCAUUUCGCUGCCAGUGAAGAAAUGAACAAAGUAAAUCUGGGCCAGGCAGGCAUCAAUAGAAAUAGUCUUGCGCUCAUCCAGAAAGACUGUAAUCAUUUUAAGGGUA [A66U A91U A111U U120A], the self-cleavage came out at 0.13.
Turning to GUUAACGGUCAUAGGCCAUGGAAACUAGGAGCACCAUUUCGCUGCCAGUGAAGAAAUGAACAAAGGAAAUCUGGGCCAGGCAGGCAUCAAAAGAAAUAGUCUUGCGCACAACCAGAAAGUCUGGAAUCAUUUUAAGGGUA [A66G U108A U124G], the self-cleavage worked out at 0.01.
The same measure for GUUAACGGUCAUAGGCCAUGGAAACUAGGAGCACCAUUUCGCUGCCAGUGAAGAAAUGAACAAAGGAAAUCUGGGCCAGGCAGGUAUCAAAAGAAAUAGUCUUGCGCUCAACCAGAAAGUCUGUAACCAUUUUAAGGGUA [A66G C85U U127C]: 0.79; for GUUAACGGUCAUAGGCCAUGGAAACUAGGAGCACCAUUUCGCUGCCAGUGAAGAAAUGAACAAAGGAAACCUGGGCCAGGCAGGCAUCAAAAGAAAUAGACUUGCGCUCAACCAGAAAGUCUGUAAUCAUUUUAAGGGUA [A66G U70C U100A]: 0.22; for GUUAACGGUCAUAGGCCAUGGAAACUAGGAGCACCAUUUCGCUGCCAGUGAAGAAAUGAACAAAGGAAAUCUGGGCCAGGCAGGCAUCAAAAGAAAUAGUCUCGCGCUCAGCCAGAAAGUCUGUAAUCAUUUUAAGGGUA [A66G U103C A111G]: 0.01.
As to GUUAACGGUCAUAGGCCAUGGAAACUAGGAGCACCAUUUCGCUGCCAGUGAAGAAAUGAACAAAGUAAAUCUGGGCCAGGCAGGCAUCAAAAGAAAUAGUCCUGCGCUCAACCAGAAAGUCAGUAAUCAUUUUAAGGGUA [A66U U102C U122A], the self-cleavage was found to be 1.87.
In the case of GUUAACGGUCAUAGGCCAUGGAAACUAGGAGCACCAUUUCGCUGCCAGUGAAGAAAUGAACAAAGGAAAUCCGGGCCAGGCAGGCAUCAAAGGAAAUAGUCUUGCGCUCAACCAGAGAGUCUGUAAUCAUUUUAAGGGUA [A66G U72C A92G A117G], the self-cleavage worked out at 0.04.
In the case of GUUAACGGUCAUAGGCCAUGGAAACUAGGAGCACCAUUUCGCUGCCAGUGAAGAAAUGAACAAAGAGAAUCUGGGCCAGGCGGGCGUCAAAAGAAAUAGUCUUGCGCUCAACCAGAAAGUCUGUAAUCAUUCUAAGGGUA [A67G A82G A86G U132C], the self-cleavage was 0.05.
As for GUUAACGGUCAUAGGCCAUGGAAACUAGGAGCACCAUUUCGCUGCCAGUGAAGAAAUGAACAAAGGAAAUCUGGGCCAGGCAGGCAUCAAAAGAAAUAGUCUUGCGCCCAACCAGAAAGUCUGAAAUCAUUUUAAGGGUA [A66G U108C U124A], the self-cleavage was determined as 0.
For the variant GUUAACGGUCAUAGGCCAUGGAAACUAGGAGCACCAUUUCGCUGCCAGUGAAGAAAUGAACAAAGUAAAUCUGGGCCAGGCAGGCUCCAAAAGAAAUAGUCUUGCGCUCAACCUGAAAGUCUGUAAUCACUUUAAGGGUA [A66U A86U U87C A114U U130C], the self-cleavage turned out to be 0.01.
The result for GUUAACGGUCAUAGGCCAUGGAAACUAGGAGCACCAUUUCGCUGCCAGUGAAGAAAUGAACAAAGUAAAUCUGGGCCAGGCAGGCAUCAAAAGAAAUAGUCUUGCACUCAACCAGAAAGUCUGUAGUCAUUUUAAGGGUA [A66U G106A A126G] reads 0; that for GUUAACGGUCAUAGGCCAUGGAAACUAGGAGCACCAUUUCGCUGCCAGUGAAGAAAUGAACAAAGUAAAUCUGGGCCAGGCAGGCAUCAAAAGAAAUAGUCUUGCGCUCAACCAGAAAGUCCGUAAUCAUUCUAAGGGUA [A66U U122C U132C], 0.28.
With GUUAACGGUCAUAGGCCAUGGAAACUAGGAGCACCAUUUCGCUGCCAGUGAAGAAAUGAACAAAGGAAAUCUGGGCCAGGCAGGCACCAAAAGAGAUAGUCUUGCGGUCAACCAGAAAGUCCGUAAUCAUUUUAAGGGUA [A66G U87C A95G C107G U122C], the self-cleavage is 0.
Regarding GUUAACGGUCAUAGGCCAUGGAAACUAGGAGCACCAUUUCGCUGCCAGUGAAGAAAUGAACAAAGGAAACCUGGGCCAGGCAGGCAUCAAAAGAAAUAGUCUAGCGCUCAACCAGAAAGUCUGUAACCAUUUUAAGGGUA [A66G U70C U103A U127C], the self-cleavage was 0.05.
